Where “and” joins values, the source holds several entries; their conditions need not be identical. Equal values may be shown once. Inconclusive results, whose numbers are uncertain, are shown with a selection of clear calls. Potencies beside an inconclusive call are fits to weak or partial responses and may not hold up. Calls of active or inactive are those of the source. Calls come from the whole dose curve; as a rule, active = well fitted curve in the direction sought with a large enough effect; inconclusive = small, poorly fitted or top-dose-only effect, or another doubt; inactive = no such curve, though single readings can be large; an effect the other way counts as inactive or inconclusive.
Experiments:
[1] = Viability qHTS for spleen associated tyrosine kinase inhibitor (SYKi) naive MV4-11 cells (AID 1963823); details: MV4-11 AML viability, CellTiter-Glo luminescence, 72 h; viability (% of control): at 45 µM (top of the series); note: nearly all actives have a fitted effect of over 40% in size
Method in brief: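 Read-out: CellTiter-Glo luminescence. Exposure: 72 hr, 37 C, 5% CO2, 95% humidity. Cells: MV4-11 without SYK inhibitor history, 500/well, qHTS format.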

[2] = Cellular viability qHTS for adrenocortical cancer (ACC) cell line SW-13 (AID 1963989); details: SW-13 ACC cells viability, CellTiter-Glo, 48 h; activity (max response): stronger effect = lower value; note: nearly all actives have a fitted effect of over 65% in size;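 for activity (max response): cells grown in serum-free medium with ITS supplement; % is set by controls: 0 for no effect and ±100 for the full control effect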
Method in brief: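 Compound titrations (up to 46 uM final, in DMSO) were applied to SW-13 cells for 48 h at 37C/5% CO2. Reading used CellTiter-Glo after 20 min at room temperature; fitted curves yielded IC50 and efficacy.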
Potency is the fitted concentration of half-maximal effect; tags give direction and shape of the fitted curve.

Compound | Potency [1] | Potency [2] | activity (max response) [2]
CCCCCCCOc1ccc(CCC(N)(CO)CO)cc1C(F)(F)F | active: 7.42 µM | inconclusive: 31.6 µM [cytotoxic, single point] | –
O=C(NCC(O)CO)c1c(I)c(C(=O)NCC(O)CO)c(I)c(N(CCO)C(=O)CO)c1I (stereo unspecified) | inactive | – | inactive: -7.35%
OC1C(O)C(O)C(O)C(O)C1O (stereo unspecified) | inactive | – | inactive: -3.11%
CO[C@@H]1[C@@H](O)[C@H](O)[C@@H](n2c3c(Cl)cccc3c3c4c(c5c6cccc(Cl)c6[nH]c5c32)C(=O)NC4=O)O[C@H]1CO | inconclusive: 0.662 µM [cytotoxic, full curve] | active: 0.316 µM | –
O=C1Nc2ccccc2C1(c1ccc(O)cc1)c1ccc(O)cc1 | inconclusive: 16.8 µM [cytotoxic, partial curve, poor fit] | inconclusive: 20.6 µM [cytotoxic, single point] | –
CCO[C@H](Cc1ccc(OCCc2ccc(OS(C)(=O)=O)cc2)cc1)C(=O)O | inactive | – | inactive: 6.74%
CN1CCN(CCC(=O)N2c3ccccc3Sc3ccc(C(F)(F)F)cc32)CC1 | inconclusive: 13.3 µM [cytotoxic, partial curve] | inconclusive: 16.4 µM [cytotoxic, single point] | –
COc1cc2ncnc(Nc3ccc(F)c(Cl)c3)c2cc1NC(=O)/C=C/CN1CCCCC1 | active: 1.64 µM | active: 0.708 µM | –
Cc1cn([C@H]2C[C@H](F)[C@@H](CO)O2)c(=O)[nH]c1=O | inactive | – | inactive: 3.39%
CC1=C(CO)C(=O)O[C@@H]([C@@H](C)[C@H]2CC[C@H]3[C@@H]4C[C@H]5O[C@]56[C@@H](O)C=CC(=O)[C@]6(C)[C@H]4CC[C@]23C)C1 | inconclusive: 282 nM [cytotoxic, full curve] and active: 296 nM | active: 1.58 µM | –
CN1CCCN(C(=O)c2cccc(-c3ccc(/C=C4/C(=O)Nc5ccc(Cl)cc54)o3)c2)CC1 | active: 0.417 µM | active: 25.1 µM | –
O=C(NCCCNc1nc(Nc2cccc(CN3CCOCC3)c2)ncc1C1CC1)C1CCC1 | active: 0.132 µM | – | inactive: 10.1%
CN1CCCN(C(c2ccccc2)c2ccc(Cl)cc2)CC1 (stereo unspecified) | active: 21.1 µM | inconclusive: 18.4 µM [cytotoxic, single point] | –
N=C1S/C(=C\c2ccc(-c3ccc4c(c3)C(=O)NC4=O)o2)C(=O)N1c1ccc(Br)cc1 | inconclusive: 8.11 µM [cytotoxic, partial curve] | – | inactive: 2.9%
Cc1cc2nc3ccc(=[N+](C)C)cc-3sc2cc1N | inconclusive: 2.11 µM [cytotoxic, full curve] | active: 4.61 µM | –
CN[C@@H](C)C(=O)N[C@H](C(=O)N1CCC[C@H]1C(=O)Nc1sc(-c2ncco2)nc1-c1ccccc1)C1CCCCC1 | inconclusive: 23.5 µM [cytotoxic, single point] | – | inactive: -5.71%
CNC(=O)Cn1cc(-c2ccc3c(c2)C(F)CC32NC(=O)N(CC(=O)N(Cc3ccc(F)cc3)C(C)C(F)(F)F)C2=O)cn1 (stereo unspecified) | active: 0.0417 µM | inconclusive: 1.41 µM [cytotoxic, full curve] | –
CCc1nnc(NS(=O)(=O)c2ccc(N)cc2)s1 | inconclusive: 18.8 µM [cytotoxic, single point] | – | inactive: 4.19%
CC(C)(C)C(O)/C=C/c1ccc2c(c1)OCO2 (stereo unspecified) | inactive | – | inactive: -8.69%
CCCCCCCCCCCCCCNCCO | inconclusive: 21.1 µM [cytotoxic, partial curve] | inconclusive: 20.6 µM [cytotoxic, single point] | –
O=C(O)Cc1ccc(CCNS(=O)(=O)c2ccc(Cl)cc2)cc1 | inconclusive: 11.9 µM [cytotoxic, partial curve, poor fit] | – | inactive: -0.672%
COc1cc2c(cc1OC)-c1cc(=Nc3c(C)cc(C)cc3C)n(C)c(=O)n1CC2 | active: 9.44 µM | inconclusive: 16.4 µM [cytotoxic, single point] | –
NS(=O)(=O)OC[C@@H]1C[C@@H](n2ccc3c(N[C@H]4CCc5ccccc54)ncnc32)C[C@@H]1O | active: 103 nM and active: 164 nM and inconclusive: 118 nM [cytotoxic, full curve] | inconclusive: 0.316 µM [cytotoxic, full curve] | –

From PubChem BioAssay (NCATS)
